{"source": "the supplement of paper PMC8728848", "experiment_in_all_cases": "glycan array binding signal (z-score within array); higher = stronger binding", "details_in_all_cases": "glycan notation: IUPAC condensed, linker removed; mutation: F355A", "key": {"[1]": {"biological_target": "Gal(b1-4)GlcNAc(b1-3)Gal(b1-4)GlcNAc(b1-3)Gal(b1-4)GlcNAc", "in_short": "(§1)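 Arrays were curated from the Consortium for Functional Glycomics database, 3228 in total, and kept only where the protein sequence was available. Binding is expressed as a within-array Z-score. This score was averaged across arrays of the same protein sequence at different concentrations or buffers and across linkers, and negative values can be read as non-binding.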"}, "[2]": {"biological_target": "Gal(b1-4)GlcNAc(b1-3)Gal(b1-4)[Fuc(a1-3)]GlcNAc(b1-3)Gal(b1-4)[Fuc(a1-3)]GlcNAc", "in_short": "as §1"}, "[3]": {"biological_target": "Gal(b1-4)GlcNAc(b1-3)GalNAc", "in_short": "as §1"}, "[4]": {"biological_target": "Gal(b1-4)GlcNAc(b1-3)[Gal(b1-4)GlcNAc(b1-6)]Gal(b1-4)GlcNAc", "in_short": "as §1"}, "[5]": {"biological_target": "Gal(b1-4)GlcNAc(b1-3)[GlcNAc(b1-6)]Gal(b1-4)GlcNAc", "in_short": "as §1"}, "[6]": {"biological_target": "Gal(b1-4)GlcNAc(b1-6)Gal(b1-4)GlcNAc", "in_short": "as §1"}, "[7]": {"biological_target": "Gal(b1-4)GlcNAc(b1-6)Gal(b1-4)GlcNAc(b1-6)GalNAc", "in_short": "as §1"}, "[8]": {"biological_target": "Gal(b1-4)GlcNAc(b1-6)GalNAc", "in_short": "as §1"}, "[9]": {"biological_target": "Gal(b1-4)GlcNAc(b1-6)[Gal(b1-3)]GalNAc", "in_short": "as §1"}, "Gal3S(b1-3)GalNAc": {"biological_target": "Gal3S(b1-3)GalNAc", "in_short": "as §1"}, "Gal3S(b1-3)GlcNAc": {"biological_target": "Gal3S(b1-3)GlcNAc", "in_short": "as §1"}, "[10]": {"biological_target": "Gal3S(b1-3)[Fuc(a1-4)]GlcNAc", "in_short": "as §1"}, "Gal3S(b1-4)Glc": {"biological_target": "Gal3S(b1-4)Glc", "in_short": "as §1"}, "Gal3S(b1-4)Glc6S": {"biological_target": "Gal3S(b1-4)Glc6S", "in_short": "as §1"}, "Gal3S(b1-4)GlcNAc": {"biological_target": "Gal3S(b1-4)GlcNAc", "in_short": "as §1"}, "Gal3S(b1-4)GlcNAc6S": {"biological_target": "Gal3S(b1-4)GlcNAc6S", "in_short": "as §1"}, "[11]": {"biological_target": "Gal3S(b1-4)[Fuc(a1-3)]Glc", "in_short": "as §1"}, "Gal3S4S(b1-4)GlcNAc": {"biological_target": "Gal3S4S(b1-4)GlcNAc", "in_short": "as §1"}, "Gal3S6S(b1-4)GlcNAc": {"biological_target": "Gal3S6S(b1-4)GlcNAc", "in_short": "as §1"}, "Gal3S6S(b1-4)GlcNAc6S": {"biological_target": "Gal3S6S(b1-4)GlcNAc6S", "in_short": "as §1"}, "Gal4S(b1-4)GlcNAc": {"biological_target": "Gal4S(b1-4)GlcNAc", "in_short": "as §1"}, "Gal4S6S(b1-4)GlcNAc": {"biological_target": "Gal4S6S(b1-4)GlcNAc", "in_short": "as §1"}, "Gal6S(b1-4)Glc": {"biological_target": "Gal6S(b1-4)Glc", "in_short": "as §1"}, "Gal6S(b1-4)Glc6S": {"biological_target": "Gal6S(b1-4)Glc6S", "in_short": "as §1"}, "Gal6S(b1-4)GlcNAc": {"biological_target": "Gal6S(b1-4)GlcNAc", "in_short": "as §1"}, "Gal6S(b1-4)GlcNAc6S": {"biological_target": "Gal6S(b1-4)GlcNAc6S", "in_short": "as §1"}, "GalNAc(a1-3)Gal": {"biological_target": "GalNAc(a1-3)Gal", "in_short": "as §1"}, "GalNAc(a1-3)GalNAc": {"biological_target": "GalNAc(a1-3)GalNAc", "in_short": "as §1"}, "GalNAc(b1-3)Gal": {"biological_target": "GalNAc(b1-3)Gal", "in_short": "as §1"}, "[12]": {"biological_target": "GalNAc(b1-3)Gal(a1-4)Gal(b1-4)GlcNAc", "in_short": "as §1"}, "GalNAc(b1-3)GalNAc": {"biological_target": "GalNAc(b1-3)GalNAc", "in_short": "as §1"}, "GalNAc(b1-4)GlcNAc": {"biological_target": "GalNAc(b1-4)GlcNAc", "in_short": "as §1"}, "Glc(a1-4)Glc": {"biological_target": "Glc(a1-4)Glc", "in_short": "as §1"}, "Glc(a1-6)Glc(a1-6)Glc": {"biological_target": "Glc(a1-6)Glc(a1-6)Glc", "in_short": "as §1"}, "Glc(b1-4)Glc": {"biological_target": "Glc(b1-4)Glc", "in_short": "as §1"}, "Glc(b1-6)Glc": {"biological_target": "Glc(b1-6)Glc", "in_short": "as §1"}, "GlcA(b1-3)Gal": {"biological_target": "GlcA(b1-3)Gal", "in_short": "as §1"}}, "note": "This is one part of the list."}
{"binder": "Surfactant Protein D (Human); Neck + Carbohydrate Recognition Domain (NCRD) (Homo sapiens) (protein) MLLFLLSALVLLTQPLGYLEAEMKTYSHRTMPSACTLVMCSSVESGLPGRDRDGREGPRGEKGDPGLPGAAGQAGMPGQAGPVGPKGDNGSVGEPGPKGDTGPSGPPGPPGVPGPAGREGALGKQGNIGPQGKPGPKGEAGPKGEVGAPGMQGSAGARGLAGPKGERGVPGERGVPGNTGAAGSAGAMGPQGSPGARGPPGLKGDKGIPGDKGAKGESGLPDVASLRQQVEALQGQVQHLQAAFSQYKKVELFPNGQSVGEKIFKTAQFVKPFTEAQLLCTQAGGQLASPRSAAENAALQQLVVAKNEAAFLSMTDSKTEGKFTYPTGESLVYSNWAPGEPNDDGGSEDCVEIFTNGKWNDRACGEKRLVVCEA", "values": [{"measurement": "glycan array binding signal (z-score)", "setting": "[1]", "result": -0.155}, {"measurement": "glycan array binding signal (z-score)", "setting": "[2]", "result": -0.101}, {"measurement": "glycan array binding signal (z-score)", "setting": "[3]", "result": 0.001}, {"measurement": "glycan array binding signal (z-score)", "setting": "[4]", "result": -0.183}, {"measurement": "glycan array binding signal (z-score)", "setting": "[5]", "result": -0.067}, {"measurement": "glycan array binding signal (z-score)", "setting": "[6]", "result": -0.113}, {"measurement": "glycan array binding signal (z-score)", "setting": "[7]", "result": -0.126}, {"measurement": "glycan array binding signal (z-score)", "setting": "[8]", "result": -0.142}, {"measurement": "glycan array binding signal (z-score)", "setting": "[9]", "result": -0.084}, {"measurement": "glycan array binding signal (z-score)", "setting": "Gal3S(b1-3)GalNAc", "result": -0.139}, {"measurement": "glycan array binding signal (z-score)", "setting": "Gal3S(b1-3)GlcNAc", "result": -0.163}, {"measurement": "glycan array binding signal (z-score)", "setting": "[10]", "result": -0.152}, {"measurement": "glycan array binding signal (z-score)", "setting": "Gal3S(b1-4)Glc", "result": -0.149}, {"measurement": "glycan array binding signal (z-score)", "setting": "Gal3S(b1-4)Glc6S", "result": -0.147}, {"measurement": "glycan array binding signal (z-score)", "setting": "Gal3S(b1-4)GlcNAc", "result": -0.136}, {"measurement": "glycan array binding signal (z-score)", "setting": "Gal3S(b1-4)GlcNAc6S", "result": -0.121}, {"measurement": "glycan array binding signal (z-score)", "setting": "[11]", "result": -0.143}, {"measurement": "glycan array binding signal (z-score)", "setting": "Gal3S4S(b1-4)GlcNAc", "result": -0.108}, {"measurement": "glycan array binding signal (z-score)", "setting": "Gal3S6S(b1-4)GlcNAc", "result": -0.123}, {"measurement": "glycan array binding signal (z-score)", "setting": "Gal3S6S(b1-4)GlcNAc6S", "result": -0.155}, {"measurement": "glycan array binding signal (z-score)", "setting": "Gal4S(b1-4)GlcNAc", "result": -0.12}, {"measurement": "glycan array binding signal (z-score)", "setting": "Gal4S6S(b1-4)GlcNAc", "result": -0.139}, {"measurement": "glycan array binding signal (z-score)", "setting": "Gal6S(b1-4)Glc", "result": -0.114}, {"measurement": "glycan array binding signal (z-score)", "setting": "Gal6S(b1-4)Glc6S", "result": 0.032}, {"measurement": "glycan array binding signal (z-score)", "setting": "Gal6S(b1-4)GlcNAc", "result": -0.137}, {"measurement": "glycan array binding signal (z-score)", "setting": "Gal6S(b1-4)GlcNAc6S", "result": -0.134}, {"measurement": "glycan array binding signal (z-score)", "setting": "GalNAc(a1-3)Gal", "result": -0.13}, {"measurement": "glycan array binding signal (z-score)", "setting": "GalNAc(a1-3)GalNAc", "result": -0.065}, {"measurement": "glycan array binding signal (z-score)", "setting": "GalNAc(b1-3)Gal", "result": -0.12}, {"measurement": "glycan array binding signal (z-score)", "setting": "[12]", "result": -0.138}, {"measurement": "glycan array binding signal (z-score)", "setting": "GalNAc(b1-3)GalNAc", "result": -0.143}, {"measurement": "glycan array binding signal (z-score)", "setting": "GalNAc(b1-4)GlcNAc", "result": -0.141}, {"measurement": "glycan array binding signal (z-score)", "setting": "Glc(a1-4)Glc", "result": -0.13}, {"measurement": "glycan array binding signal (z-score)", "setting": "Glc(a1-6)Glc(a1-6)Glc", "result": -0.16}, {"measurement": "glycan array binding signal (z-score)", "setting": "Glc(b1-4)Glc", "result": -0.129}, {"measurement": "glycan array binding signal (z-score)", "setting": "Glc(b1-6)Glc", "result": -0.155}, {"measurement": "glycan array binding signal (z-score)", "setting": "GlcA(b1-3)Gal", "result": -0.135}]}
